Results are given in words; binding and its absence hold for the method and conditions named. Binding seen in cells or lysates may run through a third protein. Some entries that bind do so weakly or less than the wild type.
Experiments:
[1] = target: MBP-PPD1 (Arabidopsis thaliana (Col-0)) (UniProt Q7XA73); experiment: pull-down; GST-MYC3/4 incubated with MBP-PPD1/2 or MBP (E. coli proteins obtained by sonication) at 4 °C for 1 h; pulled down with anti-MBP agarose beads; 50 mM HEPES pH 7.5, 150 mM NaCl, Triton X-100; blot with anti-GST and anti-MBP
[2] = target: MBP-PPD2 (Arabidopsis thaliana (Col-0)) (UniProt Q8GY55); experiment: as above
[3] = target: GFP-MYC2 (Arabidopsis thaliana (Col-0)) (UniProt Q39204); experiment: co-IP; total protein extracts of transgenic Arabidopsis plants expressing Myc- and GFP-tagged proteins; GFP-Trap agarose beads, 4 °C 1 h; 50 mM Tris-HCl pH 7.5, 150 mM NaCl, Triton X-100; blot with anti-GFP and anti-Myc
[4] = target: GFP-MYC4 (Arabidopsis thaliana (Col-0)) (UniProt O49687); experiment: as above
[5] = target: MYC4-CFP (Arabidopsis thaliana (Col-0)) (UniProt O49687); experiment: FRET or BRET; FRET-FLIM; CFP and YFP fusions coinfiltrated into N. benthamiana leaves; CFP fluorescence lifetime 2 days after coinfiltration
[6] = target: T1, ENHANCER OF GLABRA 3 (EGL3) (UniProt Q9CAD0); experiment: split reporter; split luciferase complementation; nLUC and cLUC fusions coexpressed in N. benthamiana leaves; luciferase activity detected 2 days after infiltration
T1 sequence: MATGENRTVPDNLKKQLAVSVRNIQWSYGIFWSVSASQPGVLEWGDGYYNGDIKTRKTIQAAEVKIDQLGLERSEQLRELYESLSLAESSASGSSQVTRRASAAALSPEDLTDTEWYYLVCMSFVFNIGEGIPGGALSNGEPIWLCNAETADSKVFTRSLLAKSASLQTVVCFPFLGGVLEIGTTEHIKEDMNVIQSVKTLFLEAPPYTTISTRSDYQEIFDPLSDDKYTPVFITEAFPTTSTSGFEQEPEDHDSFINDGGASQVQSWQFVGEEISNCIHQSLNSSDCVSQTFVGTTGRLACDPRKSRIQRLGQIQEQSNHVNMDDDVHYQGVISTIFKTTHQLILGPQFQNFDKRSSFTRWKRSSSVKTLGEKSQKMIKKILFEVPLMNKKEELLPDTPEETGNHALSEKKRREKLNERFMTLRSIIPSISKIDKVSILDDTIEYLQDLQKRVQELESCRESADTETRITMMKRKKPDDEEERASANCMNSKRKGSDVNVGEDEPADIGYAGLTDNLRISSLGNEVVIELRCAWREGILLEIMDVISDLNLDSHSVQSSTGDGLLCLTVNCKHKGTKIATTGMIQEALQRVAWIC

Amino acid sequences for entries named in this document (tags omitted).
UniProt Q7XA73: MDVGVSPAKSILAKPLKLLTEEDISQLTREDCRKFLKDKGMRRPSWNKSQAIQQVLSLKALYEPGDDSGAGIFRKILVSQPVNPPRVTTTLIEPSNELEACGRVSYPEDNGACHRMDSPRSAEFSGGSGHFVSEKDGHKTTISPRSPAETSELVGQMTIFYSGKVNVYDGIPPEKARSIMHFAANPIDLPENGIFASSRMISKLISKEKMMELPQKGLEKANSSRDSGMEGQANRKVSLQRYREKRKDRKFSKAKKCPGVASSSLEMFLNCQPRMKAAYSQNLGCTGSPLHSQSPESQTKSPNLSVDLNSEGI
UniProt Q8GY55: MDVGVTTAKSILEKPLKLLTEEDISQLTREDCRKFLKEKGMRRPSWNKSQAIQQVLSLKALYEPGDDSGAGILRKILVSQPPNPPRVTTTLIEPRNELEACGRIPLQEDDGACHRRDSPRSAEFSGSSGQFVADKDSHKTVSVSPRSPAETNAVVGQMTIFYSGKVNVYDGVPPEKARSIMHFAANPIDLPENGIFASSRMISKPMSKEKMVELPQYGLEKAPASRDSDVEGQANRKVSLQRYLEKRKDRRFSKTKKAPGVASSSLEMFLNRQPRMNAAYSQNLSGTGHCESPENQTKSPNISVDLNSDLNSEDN
UniProt Q39204: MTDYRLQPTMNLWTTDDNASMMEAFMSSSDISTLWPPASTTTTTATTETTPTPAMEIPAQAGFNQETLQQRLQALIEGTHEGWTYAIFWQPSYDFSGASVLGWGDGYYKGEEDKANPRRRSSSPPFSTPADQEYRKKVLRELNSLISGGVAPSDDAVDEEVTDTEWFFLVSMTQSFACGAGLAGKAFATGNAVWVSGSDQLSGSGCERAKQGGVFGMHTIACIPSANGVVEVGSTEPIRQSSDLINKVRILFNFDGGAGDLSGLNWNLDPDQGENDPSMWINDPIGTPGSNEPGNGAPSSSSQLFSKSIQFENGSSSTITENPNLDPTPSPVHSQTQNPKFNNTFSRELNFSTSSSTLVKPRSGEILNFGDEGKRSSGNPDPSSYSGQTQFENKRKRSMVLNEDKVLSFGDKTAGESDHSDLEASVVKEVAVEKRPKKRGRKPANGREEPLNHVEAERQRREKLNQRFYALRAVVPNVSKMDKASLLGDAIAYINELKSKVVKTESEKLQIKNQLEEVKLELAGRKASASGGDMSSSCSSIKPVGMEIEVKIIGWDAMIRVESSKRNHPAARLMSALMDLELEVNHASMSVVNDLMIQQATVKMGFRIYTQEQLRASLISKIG
UniProt O49687: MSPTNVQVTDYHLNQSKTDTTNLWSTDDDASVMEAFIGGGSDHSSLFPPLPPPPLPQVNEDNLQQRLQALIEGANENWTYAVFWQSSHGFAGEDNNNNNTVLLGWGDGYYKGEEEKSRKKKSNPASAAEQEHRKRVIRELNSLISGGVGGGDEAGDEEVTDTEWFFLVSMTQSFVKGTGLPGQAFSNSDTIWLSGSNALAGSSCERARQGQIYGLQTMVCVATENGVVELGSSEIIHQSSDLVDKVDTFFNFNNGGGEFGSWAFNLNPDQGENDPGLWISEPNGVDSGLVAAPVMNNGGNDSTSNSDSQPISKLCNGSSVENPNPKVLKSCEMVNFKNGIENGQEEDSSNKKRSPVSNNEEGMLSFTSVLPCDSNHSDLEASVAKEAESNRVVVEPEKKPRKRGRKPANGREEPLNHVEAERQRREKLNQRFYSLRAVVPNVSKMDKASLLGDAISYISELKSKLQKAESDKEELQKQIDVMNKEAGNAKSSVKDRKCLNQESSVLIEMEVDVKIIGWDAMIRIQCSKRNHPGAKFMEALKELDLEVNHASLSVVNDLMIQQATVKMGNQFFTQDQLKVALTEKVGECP

ETHYLENE-… 3 (EIN3) = target: T2, ETHYLENE-… 3 (EIN3) (UniProt O24606); experiment: as above
T2 sequence: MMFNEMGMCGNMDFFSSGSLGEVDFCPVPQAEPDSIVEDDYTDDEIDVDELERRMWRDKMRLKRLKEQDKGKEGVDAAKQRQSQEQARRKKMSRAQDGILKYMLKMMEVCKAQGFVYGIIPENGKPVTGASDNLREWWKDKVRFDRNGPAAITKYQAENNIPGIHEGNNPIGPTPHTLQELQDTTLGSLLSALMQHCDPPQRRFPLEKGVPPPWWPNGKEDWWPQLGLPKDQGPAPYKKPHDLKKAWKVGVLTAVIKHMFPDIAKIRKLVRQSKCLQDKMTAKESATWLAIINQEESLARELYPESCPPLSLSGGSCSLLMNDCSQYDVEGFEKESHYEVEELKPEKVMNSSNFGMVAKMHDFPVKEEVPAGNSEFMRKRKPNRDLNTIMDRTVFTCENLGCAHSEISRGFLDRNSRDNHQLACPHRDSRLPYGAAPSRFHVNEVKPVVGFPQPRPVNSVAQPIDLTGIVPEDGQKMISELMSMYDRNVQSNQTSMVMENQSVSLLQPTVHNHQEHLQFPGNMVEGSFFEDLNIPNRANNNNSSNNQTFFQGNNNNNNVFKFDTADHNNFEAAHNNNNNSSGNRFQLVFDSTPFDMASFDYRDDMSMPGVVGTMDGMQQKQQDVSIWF

[7] = target: T3, ETHYLENE-…3-LIKE 1 (EIL1) (UniProt Q9SLH0); experiment: as above
T3 sequence: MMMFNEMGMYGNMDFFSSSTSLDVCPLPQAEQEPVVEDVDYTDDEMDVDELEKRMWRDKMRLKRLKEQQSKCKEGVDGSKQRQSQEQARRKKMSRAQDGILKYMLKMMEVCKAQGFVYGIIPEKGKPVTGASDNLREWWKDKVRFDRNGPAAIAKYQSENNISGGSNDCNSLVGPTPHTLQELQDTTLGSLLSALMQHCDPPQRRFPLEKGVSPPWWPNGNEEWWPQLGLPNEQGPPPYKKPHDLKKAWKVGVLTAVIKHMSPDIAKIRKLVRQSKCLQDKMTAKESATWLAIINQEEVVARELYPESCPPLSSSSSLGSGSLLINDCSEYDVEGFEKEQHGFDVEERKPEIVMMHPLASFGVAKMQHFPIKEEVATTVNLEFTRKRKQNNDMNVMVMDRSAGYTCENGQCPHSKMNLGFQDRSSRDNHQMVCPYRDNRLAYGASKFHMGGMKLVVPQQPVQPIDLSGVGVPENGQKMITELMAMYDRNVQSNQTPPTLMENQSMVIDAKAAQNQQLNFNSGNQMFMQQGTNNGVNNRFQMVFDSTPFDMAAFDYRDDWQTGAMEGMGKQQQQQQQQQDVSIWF

GLABRA 1 (GL1) = target: T4, GLABRA 1 (GL1) (UniProt P27900); experiment: as above
T4 sequence: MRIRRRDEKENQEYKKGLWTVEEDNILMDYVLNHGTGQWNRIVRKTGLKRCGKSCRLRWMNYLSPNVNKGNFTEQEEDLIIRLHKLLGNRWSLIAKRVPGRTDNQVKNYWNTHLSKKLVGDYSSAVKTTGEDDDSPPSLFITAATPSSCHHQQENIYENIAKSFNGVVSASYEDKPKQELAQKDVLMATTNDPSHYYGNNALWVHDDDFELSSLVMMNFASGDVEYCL

GLABROUS 3 (GL3) = target: T5, GLABROUS 3 (GL3) (UniProt Q9FN69); experiment: as above
T5 sequence: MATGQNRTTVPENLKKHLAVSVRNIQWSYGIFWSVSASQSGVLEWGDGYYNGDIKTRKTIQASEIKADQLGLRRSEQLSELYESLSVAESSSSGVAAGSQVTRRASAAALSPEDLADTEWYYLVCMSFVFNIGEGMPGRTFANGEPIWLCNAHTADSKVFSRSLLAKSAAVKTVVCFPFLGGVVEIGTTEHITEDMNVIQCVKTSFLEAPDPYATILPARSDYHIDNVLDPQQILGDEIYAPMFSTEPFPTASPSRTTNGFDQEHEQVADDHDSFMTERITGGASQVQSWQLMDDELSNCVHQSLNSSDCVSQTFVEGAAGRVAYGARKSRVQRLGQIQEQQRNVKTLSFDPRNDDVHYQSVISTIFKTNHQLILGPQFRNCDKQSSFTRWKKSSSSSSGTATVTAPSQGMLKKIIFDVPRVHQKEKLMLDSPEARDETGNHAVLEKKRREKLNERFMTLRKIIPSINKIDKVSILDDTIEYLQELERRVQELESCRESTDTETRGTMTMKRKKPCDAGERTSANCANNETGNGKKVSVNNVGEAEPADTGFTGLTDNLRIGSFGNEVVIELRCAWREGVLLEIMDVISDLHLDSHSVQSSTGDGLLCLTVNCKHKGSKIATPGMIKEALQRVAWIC

MYB21 = target: T6, MYB21 (UniProt Q9LK95); experiment: as above
T6 sequence: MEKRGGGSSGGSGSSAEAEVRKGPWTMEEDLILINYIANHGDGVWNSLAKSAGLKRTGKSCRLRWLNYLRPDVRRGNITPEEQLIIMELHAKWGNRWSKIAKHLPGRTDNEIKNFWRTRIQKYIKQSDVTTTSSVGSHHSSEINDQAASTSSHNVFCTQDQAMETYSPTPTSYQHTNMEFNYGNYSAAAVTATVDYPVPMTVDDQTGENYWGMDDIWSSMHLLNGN

MYB24 = target: T7, MYB24 (UniProt Q9SPG9); experiment: as above
T7 sequence: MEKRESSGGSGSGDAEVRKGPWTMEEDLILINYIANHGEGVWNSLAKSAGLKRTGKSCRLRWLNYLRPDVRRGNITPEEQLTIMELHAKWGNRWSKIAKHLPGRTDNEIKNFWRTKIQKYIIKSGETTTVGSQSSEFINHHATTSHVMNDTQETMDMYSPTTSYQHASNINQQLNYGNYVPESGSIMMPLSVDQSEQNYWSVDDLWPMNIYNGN

[8] = target: MYC2-nLUC (Arabidopsis thaliana (Col-0)) (UniProt Q39204); experiment: as above
[9] = target: MYC4-nLUC (Arabidopsis thaliana (Col-0)) (UniProt O49687); experiment: as above
… TESTA 8 (TT8) = target: T8, … TESTA 8 (TT8) (UniProt Q9FT81); experiment: as above
T8 sequence: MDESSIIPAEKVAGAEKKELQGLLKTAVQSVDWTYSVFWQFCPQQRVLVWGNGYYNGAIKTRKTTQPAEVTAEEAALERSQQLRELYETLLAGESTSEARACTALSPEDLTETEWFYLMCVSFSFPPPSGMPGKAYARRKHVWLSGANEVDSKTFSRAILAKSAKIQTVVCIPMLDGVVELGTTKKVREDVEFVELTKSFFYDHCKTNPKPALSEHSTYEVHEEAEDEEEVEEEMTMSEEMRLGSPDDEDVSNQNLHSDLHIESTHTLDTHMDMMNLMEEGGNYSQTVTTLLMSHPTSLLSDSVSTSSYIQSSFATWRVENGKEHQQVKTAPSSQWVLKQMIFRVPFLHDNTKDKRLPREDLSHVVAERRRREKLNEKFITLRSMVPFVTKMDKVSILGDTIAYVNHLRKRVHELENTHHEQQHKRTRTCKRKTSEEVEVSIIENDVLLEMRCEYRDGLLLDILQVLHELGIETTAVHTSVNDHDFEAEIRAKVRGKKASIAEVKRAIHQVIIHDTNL

[10] = target: cYFP-MYC4 (Arabidopsis thaliana (Col-0)) (UniProt O49687); experiment: split reporter; bimolecular fluorescence complementation; cYFP and nYFP fusions coinfiltrated into N. benthamiana leaves; YFP fluorescence 2 days after infiltration

GST-MYC4 (from UniProt O49687 1-589)
binding [1]: binds
binding [2]: binds

Myc-PPD1 (from UniProt Q7XA73 1-313)
binding [3]: no binding
binding [4]: binds

Myc-PPD2 (from UniProt Q8GY55 1-315)
binding [3]: no binding
binding [4]: binds

PPD1-YFP (from UniProt Q7XA73 1-313)
binding [5]: binds

PPD2-YFP (from UniProt Q8GY55 1-315)
binding [5]: binds

cLUC-PPD1 (from UniProt Q7XA73 1-313)
binding [6]: no binding
binding (ETHYLENE-… 3 (EIN3)): no binding
binding [7]: no binding
binding (GLABRA 1 (GL1)): no binding
binding (GLABROUS 3 (GL3)): no binding
binding (MYB21): no binding
binding (MYB24): no binding
binding [8]: no binding
binding [9]: binds
binding (… TESTA 8 (TT8)): no binding

cLUC-PPD2 (from UniProt Q8GY55 1-315)
binding [6]: no binding
binding (ETHYLENE-… 3 (EIN3)): no binding
binding [7]: no binding
binding (GLABRA 1 (GL1)): no binding
binding (GLABROUS 3 (GL3)): no binding
binding (MYB21): no binding
binding (MYB24): no binding
binding [8]: no binding
binding [9]: binds
binding (… TESTA 8 (TT8)): no binding

nYFP-PPD1 (from UniProt Q7XA73 1-313)
binding [10]: binds

nYFP-PPD2 (from UniProt Q8GY55 1-315)
binding [10]: binds

From paper PMC7160150
